Some test systems named below: COLO 205 colon; HOP-62 NSCLC; IGROV1 ovarian; MDA-N; NCI-H23 lung; NCI-H522 lung; RPMI-8226 leukemia; SK-OV-3 ovarian; SNB-75 CNS; SW-620 colon; T-47D breast; K-562 leukemia; SR leukemia; CAKI-1 renal; DU-145 prostate; HL-60(TB) leukemia.
Common to all, as to test: NCI anticancer screen, dose series, 48 h

Each structure is given as a SMILES string.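 1) Cells in 96-well plates. 2) Compound, 48 h, 5 concentrations. 3) Linear interpolation between surrounding doses. 4) Unreached endpoint = highest concentration. The concentration for 50% growth inhibition is given as GI50.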 Certain results were filed several times, with different values. Only these are listed. There may be further records. For part of these data: Records of one sample usually come from different ranges of test concentrations, which the source does not state; a value can be the end of its range.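 The concentration for full growth arrest is given as TGI.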 For part of these data: The values listed for one entry repeat one measurement across runs, samples, wells, individuals or studies. A tag in brackets gives the origin of a value. Letters hold for one entry only. A value given as a limit tells only on which side of the number the result lay.

Experimental findings from PubChem BioAssay (NCI) are described below.

As to `CCc1c2c(nc3cc4c(c(N)c13)OCO4)-c1cc3c(c(=O)n1C2)COC(=O)[C@]3(O)CC`, the TGI in the test on COLO 205 colon is 5 µM and > 100 µM; in the test on HOP-62 NSCLC it was 13 nM and 1.42 µM; with IGROV1 ovarian it was 3.79 µM and > 100 µM; in the test on NCI-H23 lung it was 2.15 µM and 111 nM; with SK-OV-3 ovarian it was 1.84 µM and > 100 µM; in the test with SNB-75 CNS, 3.8 µM and > 100 µM. Moreover, the TGI with T-47D breast was 15.1 nM and > 100 µM. Also, the GI50 with MDA-N was 55.4 nM and 2.98 µM; with NCI-H522 lung, 2.19 nM and 39.1 nM; in the test on RPMI-8226 leukemia it was 1.39 nM and 23.6 nM; in the test with SW-620 colon, < 1 nM and 13.7 nM.

On to `O=C(c1ccc(OCCN2CCCCC2)cc1)c1c(-c2ccc(O)cc2)sc2cc(O)ccc12`, for which the TGI in the test on K-562 leukemia is > 100 µM [sample A, 1 test] and 7.26 µM [sample B, 1 test]; in the test with SR leukemia it was 5.25 µM [sample A, mean of 2 tests] and > 100 µM [sample B, 1 test].

In the case of `CC(/C=C/C(=O)c1sc(-n2nc(-c3ccccc3)cc2-c2ccccc2)nc1C)=C\c1ccccc1`, the TGI with SNB-75 CNS is 9.46 µM and > 100 µM.

As to `C[C@H](N)C(=O)N[C@@H]1[C@H]2C(=C(O)C[C@@H](O)[C@@H]2O)C(=O)O[C@]1(C)C(Cl)Cl`, the TGI in the test on CAKI-1 renal is 15.7 µM and 1.04 µM; with DU-145 prostate, 14.4 µM and 1.17 µM; with HL-60(TB) leukemia it was > 31.6 µM [mean of 2 tests] and 2.13 µM [mean of 6 tests]; in the test on MDA-N it was 11.9 µM and 721 nM.
